In the supplement of paper PMC4967469:

How the values were obtained:
Experiment in all cases: Viability of human cancer cell lines after 72 h of drug (GDSC screen)
CUDC-101 = compound: C#Cc1cccc(Nc2ncnc3cc(OC)c(OCCCCCCC(=O)NO)cc23)c1 [CUDC-101]; details: top dose 5.12 µM; top dose inferred
Description: (§1)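 Human cancer cell lines in 384-well plates, medium with 10% serum, drug for 72 h over a 256-fold dose range (nine 2-fold or five 4-fold steps up to the top dose). Adherent lines were fixed and stained with the nucleic acid dye Syto60, suspension lines read with resazurin; signal relative to control wells, capped at 0 and 100%. One two-parameter sigmoid per drug and line, fitted in a mixed model over all curves with the slope shared within a line.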

AC220 = compound: CC(C)(C)c1cc(NC(=O)Nc2ccc(-c3cn4c(n3)sc3cc(OCCN5CCOCC5)ccc34)cc2)no1 [AC220]; details: top dose 1.024 µM; top dose inferred
Description: as §1

RDEA119 = compound: COc1cc(F)c(F)c(Nc2ccc(I)cc2F)c1NS(=O)(=O)C1(C[C@H](O)CO)CC1 [RDEA119]; details: top dose 5 µM, top dose inferred
Description: as §1

JNK-9L = compound: Fc1cc(-c2ccnc(Nc3ccc(-n4cnc(N5CCOCC5)n4)cc3)n2)cc(N2CCOCC2)c1 [JNK-9L]; details: top dose 5.12 µM; top dose inferred
Description: as §1

OSU-03012 = compound: NCC(=O)Nc1ccc(-n2nc(C(F)(F)F)cc2-c2ccc3c(ccc4ccccc43)c2)cc1 [OSU-03012]; details: top dose 16 µM; top dose inferred
Description: as §1

5-Fluorouracil = compound: O=c1[nH]cc(F)c(=O)[nH]1 [5-Fluorouracil]; details: top dose 32 µM; top dose inferred
Description: as §1

QS11 = compound: OC[C@H](Cc1ccccc1)Nc1nc(Oc2ccc3c(c2)CCC3)nc2c1ncn2Cc1ccc(-c2ccccc2)cc1 [QS11]; details: top dose 10.24 µM
Description: as §1

Cell Line	AUC (CUDC-101)	pIC50 (CUDC-101)	AUC (AC220)	pIC50 (AC220)	AUC (RDEA119; screen: GDSC drug entry 1014)	pIC50 (RDEA119; screen: GDSC drug entry 1014)	AUC (RDEA119; screen: GDSC drug entry 1526)	pIC50 (RDEA119; screen: GDSC drug entry 1526)	AUC (JNK-9L)	pIC50 (JNK-9L)	AUC (OSU-03012)	pIC50 (OSU-03012)	AUC (5-Fluorouracil)	pIC50 (5-Fluorouracil)	AUC (QS11)	pIC50 (QS11)
EW-13 (Ewing sarcoma, suspension)	0.708	5.88	0.969	< 5.99	0.916	< 5.30	0.978	< 5.30	0.493	6.51	0.63	5.62	0.641	5.29	0.476	6.26
HTC-C3 (thyroid, adherent)	0.688	5.94	0.978	< 5.99			0.466	6.60	0.663	6.02	0.778	5.14	0.895	< 4.49	0.948	< 4.99
H2731 (mesothelioma, adherent)	0.13	> 7.70	0.969	< 5.99	0.887	< 5.30	0.867	< 5.30	0.934	< 5.29	0.879	< 4.80	0.982	< 4.49	0.984	< 4.99
SK-UT-1 (soft tissue, adherent)	0.944	< 5.29	0.978	< 5.99			0.934	< 5.30	0.36	6.86	0.736	5.36	0.982	< 4.49	0.953	< 4.99
KP-N-YN (neuroblastoma, adherent)	0.61	6.18	0.983	< 5.99	0.97	< 5.30	0.945	< 5.30	0.684	5.95	0.955	< 4.80	0.969	< 4.49	0.973	< 4.99
HuCCT1 (biliary tract, adherent)	0.565	6.31	0.982	< 5.99	0.638	6.10	0.58	6.27	0.573	6.29	0.679	5.47	0.653	5.25	0.9	< 4.99
NCI-H2141 (small cell lung carcinoma, suspension)	0.799	5.62	0.987	< 5.99	0.99	< 5.30	0.989	< 5.30	0.675	6.01	0.799	5.13	0.891	< 4.49	0.96	< 4.99
SW13 (adrenal gland, adherent)	0.933	< 5.29	0.988	< 5.99	0.808	5.58	0.788	5.65	0.651	6.07	0.765	5.23	0.988	< 4.49	0.878	< 4.99
SW954 (urogenital system, adherent)	0.3	7.06	0.983	< 5.99	0.819	5.54			0.568	6.31	0.665	5.54	0.762	4.94	0.869	5.02
MHH-ES-1 (Ewing sarcoma, adherent)	0.456	6.62	0.946	< 5.99	0.984	< 5.30	0.984	< 5.30	0.472	6.57	0.619	5.68	0.68	5.20	0.885	< 4.99
NCI-H1666 (lung adenocarcinoma, semi-adherent)	0.749	5.74	0.987	< 5.99			0.533	6.41	0.758	5.71	0.756	5.23	0.942	< 4.49	0.982	< 4.99
T-T (oesophagus, adherent)	0.566	6.32	0.987	< 5.99	0.876	5.31	0.951	< 5.30	0.384	6.82	0.648	5.59	0.96	< 4.49	0.806	5.29
VA-ES-BJ (soft tissue, adherent)	0.818	5.51	0.986	< 5.99	0.873	< 5.30	0.95	< 5.30	0.432	6.68	0.677	5.49	0.93	< 4.49	0.772	5.38
NCI-H1693 (lung adenocarcinoma, adherent)	0.433	6.73	0.971	< 5.99	0.885	< 5.30	0.79	5.40	0.794	5.37	0.897	< 4.80	0.97	< 4.49	0.837	< 4.99
DMS-114 (small cell lung carcinoma, adherent)	0.815	5.47	0.976	< 5.99	0.939	< 5.30	0.924	< 5.30	0.836	5.38	0.884	< 4.80	0.97	< 4.49	0.979	< 4.99
LU-165 (small cell lung carcinoma, suspension)	0.59	6.23	0.92	< 5.99	0.988	< 5.30	0.985	< 5.30	0.661	6.02	0.859	< 4.80	0.95	< 4.49	0.97	< 4.99
DSH1 (bladder, adherent)	0.378	6.82	0.955	< 5.99	0.936	< 5.30	0.93	< 5.30	0.634	6.13	0.987	< 4.80	0.965	< 4.49	0.719	5.59

Cell Line	AUC (CUDC-101)	pIC50 (CUDC-101)	AUC (AC220)	pIC50 (AC220)	AUC (RDEA119; screen: GDSC drug entry 1014)	pIC50 (RDEA119; screen: GDSC drug entry 1014)	AUC (RDEA119; screen: GDSC drug entry 1526)	pIC50 (RDEA119; screen: GDSC drug entry 1526)	AUC (JNK-9L)	pIC50 (JNK-9L)	AUC (OSU-03012)	pIC50 (OSU-03012)	AUC (5-Fluorouracil)	pIC50 (5-Fluorouracil)	AUC (QS11)	pIC50 (QS11)
SW156 (kidney, adherent)	0.927	< 5.29	0.983	< 5.99			0.934	< 5.30	0.651	6.05	0.816	5.00	0.98	< 4.49	0.962	< 4.99
L-428 (Hodgkin lymphoma, suspension)	0.99	< 5.29	0.973	< 5.99	0.989	< 5.30	0.979	< 5.30	0.631	6.15	0.818	5.12	0.991	< 4.49	0.988	< 4.99
KYSE-270 (oesophagus, adherent)	0.572	6.31	0.984	< 5.99			0.928	< 5.30	0.475	6.56	0.634	5.66	0.77	4.98	0.677	5.74
P30-OHK (lymphoblastic leukaemia, suspension)	0.292	7.03	0.944	< 5.99	0.985	< 5.30	0.982	< 5.30	0.523	6.44	0.491	6.02	0.61	5.42	0.798	5.40
TK (B-cell lymphoma, suspension)	0.458	6.60	0.989	< 5.99	0.989	< 5.30	0.976	< 5.30	0.667	6.05	0.694	5.48	0.78	4.92	0.89	5.00
NCI-H64 (small cell lung carcinoma, suspension)	0.434	6.65	0.995	< 5.99	0.996	< 5.30			0.581	6.30	0.829	5.18	0.971	< 4.49	0.939	4.99
EGI-1 (biliary tract, adherent)	0.785	5.53	0.976	< 5.99	0.666	5.98	0.636	6.08	0.614	6.14	0.735	5.23	0.953	< 4.49	0.982	< 4.99
SNU-C1 (large intestine, suspension)	0.723	5.73	0.975	< 5.99	0.385	6.89	0.406	6.82	0.522	6.42	0.977	< 4.80	0.809	4.56	0.793	5.13
NTERA-2 cl.D1 (testis, adherent)	0.441	6.66	0.983	< 5.99			0.881	< 5.30	0.537	6.39	0.798	5.12	0.925	< 4.49	0.926	< 4.99
BHY (head and neck, adherent)	0.403	6.76	0.986	< 5.99	0.828	5.51	0.891	< 5.30	0.612	6.19	0.575	5.79	0.882	< 4.49	0.81	5.27
OCI-LY-19 (B-cell lymphoma, suspension)	0.2	7.34	0.981	< 5.99	0.852	5.47	0.92	< 5.30	0.5	6.49	0.683	5.51	0.569	5.52	0.768	5.45
NB69 (neuroblastoma, adherent)	0.592	6.26	0.967	< 5.99	0.591	6.27			0.429	6.68	0.78	5.24	0.864	4.64	0.956	< 4.99
MC-IXC (neuroblastoma, adherent)	0.455	6.60	0.996	< 5.99	0.972	< 5.30	0.996	< 5.30	0.434	6.65	0.503	5.99	0.673	5.28	0.947	< 4.99
HT-115 (large intestine, adherent)	0.702	5.95	0.97	< 5.99	0.821	5.59	0.86	5.44	0.764	5.77	0.914	< 4.80	0.98	< 4.49	0.991	< 4.99
Ramos-2G6-4C10 (Burkitt lymphoma, suspension)	0.296	7.03	0.984	< 5.99	0.983	< 5.30	0.977	< 5.30	0.533	6.41	0.652	5.61	0.87	4.64	0.875	5.12
CAL-39 (cervix, adherent)	0.692	5.95	0.986	< 5.99	0.553	6.36	0.591	6.25	0.487	6.53	0.53	5.92	0.581	5.47	0.973	< 4.99
NCI-SNU-16 (stomach, suspension)	0.897	5.29	0.988	< 5.99	0.989	< 5.30			0.765	5.78	0.991	< 4.80	0.979	< 4.49	0.991	< 4.99

pIC50: −log10 of the molar value. Lines with a small IC50 respond at low doses; a fit beyond the top or the lowest dose is shown as a bound at that dose. AUC, from the same fit, is the share of area under the viability curve across the 256-fold dose range; values near 1 show little effect. For some assays here: A top dose marked as inferred comes from the curve model; the source does not state it. For some assays here: Where an entry number is given, a second screen of the drug exists; the two often differ.
